Test results from patent US20130109698A1, “Small Molecule Inhibitors of Functions of the HIV-1 Matrix Protein” (priority 2010, published 2013).

System: luciferase-reporter HIV-1 NL4-3 pseudotyped with HxBc2 envelope in U87.CD4.CXCR4 target cells
Experiment: Single-round infection assay, early stages (compound present during infection of target cells)
Conditions: for IC50: Human immunodeficiency virus 1, NL43, U87.CD4.CXCR4, read-out: IC50 early stages; for IC50 early stages: U87.CD4.CXCR4 target cells, luciferase
Text: Single-round infectious envelope-pseudotyped luciferase-reporter viruses were produced in 293T cells co-transfected by calcium phosphate precipitation (Profection Mammalian Transfection System; Promega, Madison, Wis.) with the envelope-deficient HIV-1 NL4-3 vector (pNL4-3-LucR^+E^−; a gift of N. R. Landau, New York University) (Connor et al., 1995, Virology 206:935-944), which carries the luciferase-reporter gene; and the HxBc2 envelope-expressing vector (obtained from Kathleen Page and Dan Littman through the AIDS Research and Reference Reagent Program, Division of AIDS, NIAID, NIH) (Page et al., 1990, J Virol 64:5270-5276). All MA mutations within the pNL4-3-LucR^+E^− vector were synthesized and validated by Genescript (Piscataway, N.J.). After 6 h of incubation at 37° C., the DNA-containing medium was removed, cells were washed, and fresh medium with or without MA-targeted inhibitory (MTI) compounds (at concentrations between 3.1 and 100 μM) was added. Supernatants containing the envelope-pseudotyped viruses were collected 2 days later, clarified by centrifugation, aliquoted, and stored at −80° C. until use. Pseudotype stocks were quantified by p24^gag content (Advanced Bioscience Laboratories, Kensington, Md.).
To determine whether the compounds of the invention affect early stages of the viral life cycle, 50 μL medium alone or containing MTI compounds at twice the desired final concentration (between 3.1 and 100 μM) was added to the U87.CD4.CXCR4 target cells plated in 96-well plates, and 50 μL of pseudotype stocks (not treated during production in 293T cells) was added immediately. Alternatively, to study the inhibitory effects of the compounds of the invention during the late stages of the viral life cycle, untreated or MTI-treated pseudotype stocks were diluted 1:10 with fresh medium and 100 μL was used for infection of U87.CD4.CXCR4 target cells; this dilution ensured that any effect observed was due to the concentration of the compound present during viral production and not to the residual amount of compound present during infection of target cells. Assessment of the effects of the compounds of the invention on early and late stages of infection with pseudotype stocks produced with a luciferase-reporter vector encoding a mutant MA was done in the same manner. Infections were performed for 2 days and quantified by measuring luciferase activity in cell lysates (Luciferase Assay System, Promega) using a microplate luminometer (GloMax, Promega).
Effects on assembly were identified by incubating the viral producer cells (293T) in the absence or in the presence of various concentrations of the compounds. Supernatants containing virus (that encodes for firefly luciferase as a reporter gene) were then diluted 10-fold and used to infect the target cells (U87 CD4-CXCR4). Compound-induced aberrant assembly was then manifested as a decrease in infectivity of the target cells, as compared to those infected with virus from untreated cells. Complementarily, effects on early-stage events were determined by producing virus in the absence of compound, then exposing target cells to virus in the absence or presence of various concentrations of compounds. […] The previously discovered small molecule matrix inhibitor ITI-367 ((3-(2-methoxyphenyl)-4-[3-trifluoromethyl-phenyl]-1,2,4-oxadiazol-5-one) was included in this analysis for comparison. Not only do the compounds of the invention show increased efficacy over ITI-367 but these small-molecule inhibitors are capable of disrupting both early- and late-stage processes in the replication cycle of HIV-1. Calculated 50% inhibitory concentration (IC50) values are shown in Table 3.

Structure (SMILES)	effect on early-stage events, in words	IC50	IC50 early stages
COc1c(Cl)cc(C(=O)N2CCN(Cc3nc(-c4ccc(C)cc4)no3)CC2)cc1Cl [CMPD-3, (3,5-dichloro-4-methoxyphenyl)(4-((3-(p-tolyl)-1,2,4-oxadiazol-5-yl)methyl)piperazin-1-yl)methanone]	affect viral replication at an early, pre-integration event	> 100 µM	
Cc1ccc(NC(=O)CN2CCN(Cc3nc(-c4ccc(F)cc4)no3)CC2)cc1 [CMPD-7, 2-(4-((3-(4-fluorophenyl)-1,2,4-oxadiazol-5-yl)methyl)piperazin-1-yl)-N-(p-tolyl)acetamide]			Not Active
COc1cc2nc(CN3CCN(CC(=O)Nc4cccc(C)c4C)CC3)[nH]c(=O)c2cc1OC [CMPD-8, 2-(4-((6,7-dimethoxy-4-oxo-3,4-dihydroquinazolin-2-yl)methyl)piperazin-1-yl)-N-(2,3-dimethylphenyl)acetamide]	affect viral replication at an early, pre-integration event	> 100 µM	
COc1ccc(NC(C)=O)cc1NC(=O)Cn1cnc2scc(-c3ccc(C)s3)c2c1=O [CMPD-10, N-(5-acetamido-2-methoxyphenyl)-2-(5-(5-methylthiophen-2-yl)-4-oxothieno[2,3-d]pyrimidin-3(4H)-yl)acetamide]	affect viral replication at an early, pre-integration event	30 µM	
O=C1NC(c2ccccc2)(c2ccccc2)C(=O)N1CN1CCC(c2nc3ccccc3o2)CC1 [CMPD-13, 3-((4-(benzo[d]oxazol-2-yl)piperidin-1-yl)methyl)-5,5-diphenylimidazolidine-2,4-dione]	no activity		
O=C(CNC(=O)COc1ccccc1)NCc1ccc(C(=O)N2CCCCC2)cc1 [CMPD-14, N-(2-oxo-2-((4-(piperidine-1-carbonyl)benzyl)amino)ethyl)-2-phenoxyacetamide]	affect viral replication at an early, pre-integration event	57 µM	
CCOc1ccc(NC(=O)Cc2cn3ccsc3n2)cc1S(=O)(=O)N1CCCCC1 [CMPD-18, N-(4-ethoxy-3-(piperidin-1-ylsulfonyl)phenyl)-2-(imidazo[2,1-b]thiazol-6-yl)acetamide]	affect viral replication at an early, pre-integration event	26 µM	
O=C(NCc1ccc(CN2CCCC2)cc1)c1ccc(C2SCCCS2)cc1 [CMPD-19, 4-(1,3-dithian-2-yl)-N-(4-(pyrrolidin-1-ylmethyl)benzyl)benzamide]			Not Active
COc1ccccc1-c1noc(=O)n1-c1cccc(C(F)(F)F)c1 [ITI-367, 3-(2-methoxyphenyl)-4-[3-trifluoromethyl-phenyl]-1,2,4-oxadiazol-5-one, reference compound]		> 100 µM	
